Data from the supplement of paper PMC12217912.
The list shows a part of the results. The full chains were built here from the parent and the listed change. Values near 0.05 are background.

B1: TEV protease; numbered along this chain (parent)
chain: MGESLFKGPRDYNPISSSICHLTNESDGHTTSLYGIGFGPFIITNKHLFRRNNGTLVVQSLHGVFKVKDTTTLQQHLVDGRDMIIIRMPKDFPPFPQKLKFREPQREERICLVTTNFQTKSMSSMVSDTSCTFPSGDGIFWKHWIQTKDGQCGSPLVSTRDGFIVGIHSASNFTNTNNYFTSVPKNFMELLTNQEAQQWVSGWRLNADSVLWGGHKVFMVKPEEPFQPVKEATQL

Variants of: B1
Test: raw area under fraction-flipped curve 0-4 h after induction (AUC4h, not background-subtracted), DNA-recorder readout of cleavage of the substrate (dimensionless); higher = more cleavage of the substrate by the protease variant
Conditions: temperature: 34 °C; time window: 0-4 h after rhamnose induction
Procedure: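 In vivo DNA recorder in E. coli TOP10(DE3) ΔrhaA at 34 °C. Each TEVp single-site mutant (parent TEVp 0) is paired with a single-site variant of the 7-mer TEVs (canonical ENLYFQ|S). The substrate sits between flexible linkers in a Bxb1-sfGFP-TEVs-SsrA fusion, so cleavage stabilises Bxb1 and speeds flipping of a recombination array, read by NGS. The value is the raw area under the fraction-flipped curve over 0-4 h after rhamnose induction (AUC4h), with ≥20 reads per time point. It is not background-subtracted; inactive controls average about 0.047.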
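Further: Bxb1 expression induced with 0.2% (w/v) L-rhamnose at OD600 near 0.5, cultures sampled hourly, flipped fraction per protease–substrate barcode pair counted by paired-end Illumina sequencing.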

Variant | area with substrate CNLYFQS | area with substrate HNLYFQS | area with substrate INLYFQS | area with substrate LNLYFQS | area with substrate MNLYFQS | area with substrate NNLYFQS | area with substrate QNLYFQS | area with substrate TNLYFQS | area with substrate WNLYFQS | area with substrate KNLYFQS
E189S | 0.043 | 0.0598 | 0.106 | 0.0589 | 0.035 | 0.073 | 0.0721 | 0.0672 | 0.0646 | –
S182G | 0.0587 | 0.06 | – | – | 0.0614 | 0.0506 | – | 0.0739 | 0.0569 | 0.0594
S182L | 0.0679 | 0.0592 | – | – | – | – | – | – | 0.0495 | 0.0518
S182T | 0.062 | – | 0.0358 | – | – | – | – | – | – | –
W199I | 0.0621 | 0.0453 | – | – | – | – | – | 0.0593 | 0.0612 | –
W199V | 0.0795 | 0.0662 | 0.0531 | 0.0728 | 0.07 | 0.0529 | – | – | 0.0596 | 0.065
Q197N | 0.0696 | 0.0706 | – | 0.054 | – | – | – | 0.0737 | 0.0584 | –
Q197E | 0.0732 | 0.052 | – | – | – | – | – | 0.0492 | 0.0607 | –
Q197F | 0.0517 | 0.0808 | 0.0543 | – | 0.0755 | 0.117 | 0.0754 | 0.0559 | – | –
S201Y | 0.0626 | – | 0.0576 | 0.05 | 0.0757 | – | 0.0691 | – | 0.063 | 0.0601
L211K | 0.0588 | 0.0597 | – | 0.0695 | 0.0625 | 0.0695 | – | – | – | –
L211S | 0.0757 | – | 0.0801 | – | 0.0578 | – | – | – | – | 0.061
N206I | 0.0701 | 0.054 | – | 0.0578 | – | – | – | – | 0.0639 | –
N206E | 0.0672 | 0.0583 | 0.0613 | 0.0807 | 0.0865 | 0.0692 | 0.0601 | 0.0706 | 0.0652 | –
N206A | 0.0449 | – | – | – | – | – | – | – | – | –
G213N | 0.0833 | – | – | 0.047 | 0.0402 | – | – | 0.0603 | 0.0507 | –
A196R | 0.0923 | 0.0522 | – | – | – | 0.0727 | – | – | – | –
A207L | 0.0599 | 0.0526 | 0.0681 | – | – | – | 0.0824 | 0.0614 | 0.0409 | 0.0684
N193R | 0.0625 | 0.0716 | 0.059 | 0.0561 | – | – | – | 0.0609 | – | –
N193E | 0.0537 | – | 0.0619 | 0.0572 | 0.0707 | – | 0.0611 | 0.069 | 0.0626 | 0.0454
N193D | 0.0696 | – | – | – | – | – | – | 0.0634 | – | –

Same assay, conditions: temperature: 34 °C; time window: 0-4 h after rhamnose induction

Variant | area with substrate PNLYFQS | area with substrate YNLYFQS | area with substrate SNLYFQS | area with substrate GNLYFQS | area with substrate FNLYFQS | area with substrate VNLYFQS
S182G | 0.0636 | 0.056 | – | – | – | –
S182L | – | – | 0.0336 | – | – | –
S182T | – | – | – | 0.059 | – | –
W199I | – | – | 0.0468 | – | 0.0756 | 0.0486
W199V | 0.0806 | 0.0652 | 0.0738 | 0.0627 | 0.0554 | 0.0449
Q197N | – | – | – | 0.0734 | – | –
Q197E | 0.027 | – | – | 0.0532 | 0.0607 | –
Q197F | 0.0634 | 0.0726 | 0.0843 | 0.0659 | 0.0526 | –
S201Y | 0.0201 | – | 0.0678 | – | – | 0.0726
L211S | – | 0.07 | 0.0668 | – | – | –
N206I | – | 0.058 | – | – | – | –
N206E | 0.0749 | 0.0659 | 0.0727 | – | – | –
N206A | – | – | 0.0563 | – | – | 0.0657
G213N | 0.0804 | – | – | – | 0.0496 | –
A196R | 0.0647 | – | – | – | – | –
A207L | – | – | 0.0602 | – | 0.0641 | 0.0461
N193R | 0.0717 | 0.0627 | – | – | – | –
N193E | – | 0.0527 | 0.0558 | 0.067 | 0.0697 | –
N193D | – | 0.0532 | 0.0716 | – | – | –
